The source of these data is a melting point compilation (Tetko et al.; mined from patent text by program, amines drawn as free bases though some values may be those of a salt).

Each structure is given as a SMILES string.

`O=c1c(-c2cc(O)cc(Br)c2O)coc2cc(O)ccc12` showed a melting point of 253 to 255 °C.

As to `O=C(/C=C/c1ccc(C(F)(F)F)cc1Cc1cccnc1)Nc1ccc2[nH]ccc2c1`, the melting point lay in the range of 202 to 203 °C.

The melting point is the temperature of the solid-liquid transition.
